Among all 220,000 compounds or so, about 16,000 (7.3%) were called active. This list was built around the results that the source calls inconclusive (neither active nor inactive); the mix of calls is not that of the screen. The call rests on the fitted dose curve; in most records, active means well fitted inhibition curve with a large enough effect (not every such curve was filed as active); inconclusive means small, poorly fitted or top-dose-only effect, or another doubt; inactive means no such curve, though single readings can be large or run the other way. No potency is given beside an inconclusive call; the fits are too rough.
Molecular target: Aldehyde dehydrogenase 1A1 (Homo sapiens) (UniProt P00352)
Chain of UniProt P00352 (P00352 whole entry, looked up): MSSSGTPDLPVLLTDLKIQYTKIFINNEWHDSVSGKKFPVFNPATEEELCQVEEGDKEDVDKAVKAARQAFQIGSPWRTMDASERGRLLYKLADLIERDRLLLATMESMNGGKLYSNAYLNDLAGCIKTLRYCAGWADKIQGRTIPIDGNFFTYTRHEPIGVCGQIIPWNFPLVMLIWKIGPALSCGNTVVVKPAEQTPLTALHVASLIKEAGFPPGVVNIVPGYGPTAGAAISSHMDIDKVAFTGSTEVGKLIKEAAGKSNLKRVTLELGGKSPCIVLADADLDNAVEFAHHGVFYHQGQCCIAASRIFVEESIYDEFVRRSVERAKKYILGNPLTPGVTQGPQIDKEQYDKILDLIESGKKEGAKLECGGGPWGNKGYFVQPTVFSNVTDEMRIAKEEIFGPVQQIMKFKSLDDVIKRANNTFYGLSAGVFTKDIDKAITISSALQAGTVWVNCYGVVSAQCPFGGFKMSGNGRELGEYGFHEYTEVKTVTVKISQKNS
Test: qHTS Assay for Inhibitors of Aldehyde Dehydrogenase 1 (ALDH1A1);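 on activity, negative = inhibition: plate controls were no enzyme wells and a reference inhibitor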
Details: Purified ALDH1A1, NADH fluorescence, propionaldehyde substrate; series mostly up to 75.3 µM; activity, negative = inhibition: at the top concentration
Potency means the concentration at half of the fitted maximal effect; tags describe the fitted curve by direction and shape.

SMILES | Potency | activity, negative = inhibition
CCOC(=O)CSc1nnc(CNC(=O)c2ccc(S(=O)(=O)N3CCCC3)cc2)n1C | active: 18.9 µM | –
Cn1ccnc1SCC(=O)Nc1ccc2c(c1)OCO2 | active: 14.1 µM | –
O=C(NCc1n[nH]c(=S)n1-c1ccc(F)cc1)c1ccc(S(=O)(=O)N2CCOCC2)cc1 | inconclusive [inhibitor, single point] | –
NS(=O)(=O)c1cccc(NC(=O)COC(=O)c2cc(-c3ccc(Cl)cc3)nc3ccccc23)c1 | inconclusive [inhibitor, partial curve] | –
O=c1[nH]c2ccc(Cl)cc2c(=O)n1Cc1ccco1 | inconclusive [inhibitor, full curve] | –
COc1ccccc1CN(CC(=O)NCc1ccco1)C(=O)CNS(=O)(=O)c1ccccc1 | inconclusive [inhibitor, single point] | –
c1cncc(CNc2ccc3c(c2)OCO3)c1 | active: 20 µM | –
O=C(c1c(F)cccc1F)N1CCC(n2nnc3cc(C(F)(F)F)ccc32)CC1 | inconclusive [inhibitor, single point] | –
C=CCN1C(=O)C(Cc2ccc(SC(F)F)cc2)SC1=Nc1ccc(C(=O)O)cc1 (configuration not stated) | active: 10 µM | –
O=C(NCc1cccs1)c1cc2c(s1)-c1ccccc1OC2 | inconclusive [inhibitor, partial curve] | –
CNS(=O)(=O)c1ccc(C)cc1 | – | inactive: 2.69%
CN(C)S(=O)(=O)c1cc(NC(=O)Cn2ccsc2=N)ccc1Cl | – | inactive: 9.5%
CC(C)NC(=S)N/N=C/c1cc(Br)ccc1O | inconclusive [inhibitor, single point] | –
CCn1c(C)nc2cc(C(=O)N/N=C/c3ccc(N4CCOCC4)cc3)ccc21 | inconclusive [inhibitor, partial curve] | –
CNc1nnc(-c2cc3ccccc3oc2=O)s1 | inconclusive [inhibitor, partial curve, poor fit] | –
O=C(NC1CCCCC1)N1CCN(S(=O)(=O)c2ccc(F)cc2)CC1 | – | inactive: 5.9%
COC(=O)c1ccc(NC(=S)NC(=O)c2cc(-c3ccccc3)nc3ccccc23)cc1 | active: 11.2 µM | –
O=C(c1ccc(Cl)cc1)N1CCC(O)(CSc2ccc(Cl)cc2Cl)CC1 | active: 22.4 µM | –
O=C(COC(=O)c1cc(-c2ccncc2)nc2ccccc12)Nc1ccc2c(c1)OCO2 | inconclusive [inhibitor, single point] | –
CCOC(=O)C1CCCN(C(=O)CN2C(=O)/C(=C/c3ccc(OC)cc3)Oc3ccccc32)C1 (configuration not stated) | – | inactive: 0.258%
CN(C)CC(C)(C)CNC(C(=O)Nc1ccc(Cl)cc1C(F)(F)F)c1ccccc1 (configuration not stated) | – | inactive: -2.98%
COc1ccccc1NC(=O)C1CCCN(c2nc(C)cc(C)n2)C1 (configuration not stated) | inconclusive [inhibitor, partial curve] | –
O=C(c1cccs1)n1cc(C(=S)N2CCOCC2)c2ccccc21 | inconclusive [inhibitor, single point] | –
CCCOc1ccc(/C(O)=C2/C(=O)C(=O)N(CCCN3CCOCC3)C2c2ccncc2)cc1 (configuration not stated) | inconclusive [inhibitor, partial curve] | –

SMILES | Potency | activity, negative = inhibition
COc1ccc(C(=O)/C=C/Nc2ccc(S(=O)(=O)Nc3cccc(C(C)=O)c3)cc2)cc1 | inconclusive [inhibitor, partial curve] | –
Nc1n[nH]c(=S)n1-c1ccc(Cl)cc1 | active: 1.58 µM | –
c1ccc(CCNC2=NCCCS2)cc1 | inconclusive [inhibitor, single point] | –
CCOc1ccc2c(O)csc2c1 | active: 25.1 µM | –
CC(C)NC(=O)c1onc(CSc2ccccc2)c1C(=O)O | – | inactive: -14.1%
CCC(C)CCCCNC1=NCCS1 (configuration not stated) | – | inactive: 1.63%
CC(C)(C)c1ccc(S(=O)(=O)/C=C\C#N)cc1 | active: 0.0562 µM | –
CCN(C(=O)CSc1nnnn1C)c1c(N)n(Cc2ccccc2)c(=O)[nH]c1=O | – | inactive: 13.3%
CCN(Cc1ccccc1)C(=O)COC(=O)CNC(=O)c1ccc(C)s1 | – | inactive: 7.04%
COc1ccc(NC(=O)C2CCN(S(=O)(=O)c3cccc4cccnc34)CC2)cc1 | inconclusive [inhibitor, single point] | –
COc1ccc(-c2nc(CCNC(=O)c3ccco3)cs2)cc1OC | inconclusive [inhibitor, single point] | –
COc1ccccc1NC(=O)c1cc([N+](=O)[O-])ccc1NCCN1C(=O)CCC1=O | inconclusive [inhibitor, partial curve] | –
COc1ccccc1CNC(=O)C1CCN(S(=O)(=O)N2CCCCC2)CC1 | inconclusive [inhibitor, single point] | –
Cc1ccc2nc(-c3ccc(NC(=O)CN4C(=O)c5ccccc5C4=O)cc3)sc2c1 | inconclusive [inhibitor, partial curve] | –
Nc1nc(SCc2nnc(SCC(=O)O)n2-c2ccccc2)nc2sc3c(c12)CCCC3 | inconclusive [inhibitor, single point] | –
COC(=O)c1cc(OC)c(OC)cc1NC(=S)Nc1cc(Cl)ccc1OC | – | inactive: -1.38%
C=CCN1C(=O)NC(c2ccc(OC)cc2)(C(F)(F)F)S/C1=C(\C#N)c1nnc(N2CCOCC2)n1-c1ccccc1 (configuration not stated) | inconclusive [inhibitor, single point] | –
O=Cc1c(N2CCN(c3cccc(Cl)c3)CC2)nc2ccccn2c1=O | inconclusive [inhibitor, partial curve] | –
CNS(=O)(=O)c1ccc2c(c1)NC(=O)C1CCCN21 (configuration not stated) | inconclusive [inhibitor, single point] | –
O=C(c1cc2nc(-c3ccco3)cc(C(F)(F)F)n2n1)N1CCCCCC1 | inconclusive [inhibitor, partial curve] | –
O=S(=O)(c1ccc(N2CCN(c3ccc(F)cc3)CC2)cc1)N1CCCC1 | – | inactive: 10.6%
CN(C)CC[C@H](c1ccc(Br)cc1)c1ccccn1 | – | inactive: -9.59% [at 20.9 µM]
N#Cc1ccc2ccn(CC(=O)N3CCCc4ccccc43)c2c1 | inconclusive [inhibitor, partial curve] | –

— PubChem BioAssay AID1030 (National Center for Advancing Translational Sciences (NCATS), 2008)
